This is an account of results in article PMC4336329 (PLoS ONE, 2015).

The campaign covered roughly 310,000 compounds. About 14,000 (4.5%) showed an effect of 50% or more. The effect is printed as a negative number. This is one part of the list.
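Note: peak tail current of the secondary pulse compared with the same well before compound.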

In the experiment the target is human ether-à-go-go-related gene (hERG) potassium channel (human, UniProt Q12809). Description: primary screen, population patch clamp on CHO cells stably expressing hERG.
Chain of human ether-à-go-go-related gene (hERG) potassium channel (Q12809 whole entry, looked up): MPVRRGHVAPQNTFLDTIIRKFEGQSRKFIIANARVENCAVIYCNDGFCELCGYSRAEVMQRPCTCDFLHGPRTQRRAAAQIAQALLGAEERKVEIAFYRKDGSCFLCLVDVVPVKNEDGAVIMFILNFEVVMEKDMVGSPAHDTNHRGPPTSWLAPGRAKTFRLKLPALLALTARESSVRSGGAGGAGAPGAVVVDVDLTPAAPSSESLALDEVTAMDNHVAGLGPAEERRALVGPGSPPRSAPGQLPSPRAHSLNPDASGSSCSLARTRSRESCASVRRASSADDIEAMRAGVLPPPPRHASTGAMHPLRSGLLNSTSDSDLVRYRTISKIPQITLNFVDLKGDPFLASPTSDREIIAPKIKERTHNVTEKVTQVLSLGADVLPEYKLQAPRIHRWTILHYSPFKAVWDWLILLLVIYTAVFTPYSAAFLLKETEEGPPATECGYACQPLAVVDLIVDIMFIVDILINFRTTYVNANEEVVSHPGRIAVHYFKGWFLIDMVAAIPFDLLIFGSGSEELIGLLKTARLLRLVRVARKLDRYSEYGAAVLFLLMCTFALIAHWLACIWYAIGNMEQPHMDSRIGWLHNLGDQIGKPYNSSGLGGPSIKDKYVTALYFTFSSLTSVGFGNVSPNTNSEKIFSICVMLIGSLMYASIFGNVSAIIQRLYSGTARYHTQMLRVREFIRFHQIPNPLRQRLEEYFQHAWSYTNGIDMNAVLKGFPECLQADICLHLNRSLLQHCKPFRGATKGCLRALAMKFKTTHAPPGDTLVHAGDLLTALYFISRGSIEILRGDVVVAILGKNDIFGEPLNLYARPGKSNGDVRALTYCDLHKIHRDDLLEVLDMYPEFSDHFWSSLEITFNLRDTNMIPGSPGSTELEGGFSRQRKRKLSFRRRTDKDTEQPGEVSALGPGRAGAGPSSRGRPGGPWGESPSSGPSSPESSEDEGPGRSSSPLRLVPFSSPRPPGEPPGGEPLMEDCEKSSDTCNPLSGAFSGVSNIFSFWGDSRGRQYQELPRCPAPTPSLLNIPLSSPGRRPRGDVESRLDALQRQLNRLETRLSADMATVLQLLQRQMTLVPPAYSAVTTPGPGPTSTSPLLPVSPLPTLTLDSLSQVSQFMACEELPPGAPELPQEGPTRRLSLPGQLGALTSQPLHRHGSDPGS
For the compound `O=C(NC1CCCCC1)c1ccc(COCC(F)(F)F)o1`, the “hERG current change (%, negative = inhibition) at 10uM” value is -0.702%.

For `Cc1cc(C)nc(SCC(=O)Nc2ccc(S(=O)(=O)NC(C)(C)C)cc2)n1`, the “hERG current change (%, negative = inhibition) at 10uM” value is given as -13.7%. The value for `O=C(CN(CC1CCCO1)C(=O)CNS(=O)(=O)c1ccc(Cl)cc1)NCc1ccc(F)cc1` (stereo not shown) was -25%. For `CC1=C(C(=O)c2ccccc2)C(c2ccc(N3CCOCC3)cc2)NC(=O)N1` (stereo not shown), the “hERG current change (%, negative = inhibition) at 10uM” value worked out at 16%. The same measure for `COc1ccccc1OCC(=O)Nc1ncc(C)s1`: -6.77%. The same measure for `C=CCn1c(O)c(C(CC)=Nc2ccc(C(=O)O)cc2)c(=O)[nH]c1=O`: 15.4%. The same measure for `COc1ccccc1C1SCCN1S(=O)(=O)c1cccc(C(F)(F)F)c1` (stereo not shown): 15.4%. Turning to `CCOC(=O)CNC(=S)N(Cc1ccccc1)Cc1cccs1`, the “hERG current change (%, negative = inhibition) at 10uM” value is given as -17.3%. The value for `CCC(=O)Nc1nc(OC)cc(OC)n1` was 6.21%; that for `Cc1cc(N/N=C/c2ccccc2O)nc(-c2ccccc2O)n1` was 14.7%. With `O=C(CN1C(=O)CSc2ccccc21)Nc1ccc2c(c1)OCCO2`, the “hERG current change (%, negative = inhibition) at 10uM” value stood at 2.65%. On to `CC1CCCC(NC(=O)COC(=O)c2ccccc2[N+](=O)[O-])C1C` (stereo not shown), for which the “hERG current change (%, negative = inhibition) at 10uM” value is reported as 11.4%. The same measure for `O=Cc1cn(CC(=O)Nc2ccc(F)cc2)c2ccccc12`: 11.2%. The same measure for `O=C(CSc1ccccc1)N1CCCC(N2CCN(c3ccccc3)CC2)C1` (stereo not shown): -33.7%. For `CC1(c2ccc(OC(F)F)cc2)NC(=O)N(CC(=O)Nc2ccccc2)C1=O` (stereo not shown), the “hERG current change (%, negative = inhibition) at 10uM” value is listed as -51.3%. The same measure for `CCOC(=O)[C@H]1[C@H]2COc3ccc(C)cc3[C@@H]2N2C(=O)c3cc(OC)c(OC)cc3NC(=O)[C@@]12C`: -17.3%; for `CCCCCn1cnc2sc(CC)cc2c1=O`: -24.6%; for `CCN(CC)S(=O)(=O)c1ccc2oc(C(=O)NC3CC3)c(C)c2c1`: -7.09%. The value for `CC(C)CCOP(N)(=O)Oc1ccccc1` (stereo not shown) was 9.05%. With `O=C(CCCc1ccccc1)Nc1ccnn1C1CCN(Cc2ccccc2F)CC1`, the “hERG current change (%, negative = inhibition) at 10uM” value is listed as -49%. The value for `Cc1c(CN2CCC(C(=O)Nc3ccc(Oc4ccccc4)nc3)CC2)cnn1C` was -32.8%; that for `CCOC(=O)N1CCC(NC(=O)c2ccc(CS(=O)(=O)c3c(Cl)cccc3Cl)o2)CC1` was -34.5%. Turning to `Cc1cc(C(=O)C(C)OC(=O)c2cnccn2)c(C)n1-c1ccccc1` (stereo not shown), the “hERG current change (%, negative = inhibition) at 10uM” value is -27.3%. `Cc1sc2ncnc(SCC(=O)N3CCCCC3)c2c1C`: the “hERG current change (%, negative = inhibition) at 10uM” value is on record as 10%. For `N#Cc1c(/N=C/c2ccco2)oc(-c2ccccc2)c1-c1ccccc1`, the “hERG current change (%, negative = inhibition) at 10uM” value turned out to be 9.86%.

For the compound `O=C(Nc1ccccc1)Nc1ccc(Br)cc1F`, the “hERG current change (%, negative = inhibition) at 10uM” value is reported as 10%. The value for `Cl.N=c1ccn(Cc2c(Cl)cccc2Cl)cc1` was 15.3%. The value for `O=C(CSc1nc(-c2ccco2)cc(C(F)(F)F)n1)NCCCN1CCOCC1` was 16.6%. The value for `COc1ccc(Cl)cc1S(=O)(=O)n1cnc2ccccc21` was 3.79%; that for `Cc1cc(S(=O)(=O)Nc2ccc(C(=O)NCC3(N(C)C)CCCCC3)cc2)ccc1F` was -49.2%; that for `CCOC(=O)N1CCN(C(=O)COc2cccc3c2CCN(Cc2ccc(F)cc2)C3=O)CC1` was -61%.

For `Cc1nc([N+](=O)[O-])cn1CC(=O)c1ccc(OC(F)(F)F)cc1`, the “hERG current change (%, negative = inhibition) at 10uM” value is 15.6%. On to `COC(=O)Cc1cc(=O)n2[nH]c(C)nc2n1`, for which the “hERG current change (%, negative = inhibition) at 10uM” value is on record as -15.6%. For the compound `COc1ccc([N+](=O)[O-])cc1C1NN=C(c2ccccc2O)S1` (stereo not shown), the “hERG current change (%, negative = inhibition) at 10uM” value stood at 11.1%.

Consider `CN(C)S(=O)(=O)c1ccc(C(=O)Nc2ccccc2C(=O)O)cc1`, for which the “hERG current change (%, negative = inhibition) at 10uM” value came out at 1.38%. The value for `CCCCNC(=S)N/N=C/c1sccc1C` was 30.2%; that for `Cc1csc(NC(=O)c2ccc(S(=O)(=O)N3CCN(C)CC3)cc2)n1` was -5.45%. `O=C(O)CCCCCCCCc1cn(CCc2c[nH]c3ccccc23)nn1`: the “hERG current change (%, negative = inhibition) at 10uM” value was 4.49%. The same measure for `S=C(Nc1ccc(Br)cc1)NC1CCCC1`: -0.909%; for `CCOC(=O)c1c(N)sc2c(OC)c(Br)ccc12`: 19%. Consider `COc1ccc(N2C(=NC(=O)c3ccccc3)SC3CS(=O)(=O)CC32)cc1` (stereo not shown), for which the “hERG current change (%, negative = inhibition) at 10uM” value worked out at 5.27%.

`Cc1ccc(N2C(=O)c3ccc(C(=O)O)cc3C2=O)cc1C`: the “hERG current change (%, negative = inhibition) at 10uM” value is listed as -27.5%. Regarding `Cc1ccc(NC(=S)NNC(C)(C)C)cc1`, the “hERG current change (%, negative = inhibition) at 10uM” value was 10.1%.
